According to article PMC6775327, “Binding to medium and long chain fatty acyls is a common property of HEAT and ARM repeat modules” (Scientific Reports, 2019):

How the values were obtained:
Assay in all cases: pull-down; biotinylated peptides saturating streptavidin beads (10 uL); 1 ug GST-tagged recombinant protein; detected by western blotting with an antibody against the GST tag
Conditions in all cases: both partners purified
[1] = biological target: T1, GST-tagged GCN1 7-HEAT repeats (Translational activator GCN1), 1402–1715 aa (UniProt Q92616 1402-1715)
T1 construct: Expressed from pGEX-6p-1 as N-terminal GST fusion; detected by an antibody against the GST tag; source: E. coli BL21, purified (glutathione sepharose); not shown: GST, N-terminal, kept

[2] = biological target: T2, GST-tagged DNAPK single HEAT repeat (DNA-dependent protein kinase catalytic subunit), 276–331 aa (UniProt P78527 276-331)
T2 construct: DNA-dependent protein kinase catalytic subunit, single HEAT repeat, residues 276-331; Expressed from pGEX-6p-1 as N-terminal GST fusion; detected by an antibody against the GST tag; source: E. coli BL21, purified (glutathione sepharose); not shown: GST, N-terminal, kept

[3] = biological target: T3, GST-tagged IMB1 single HEAT repeat (Importin subunit beta-1), 396–459 aa (UniProt Q14974 396-459)
T3 construct: Importin subunit beta-1, single HEAT repeat, residues 396-459; Expressed from pGEX-6p-1 as N-terminal GST fusion; detected by an antibody against the GST tag; source: E. coli BL21, purified (glutathione sepharose); not shown: GST, N-terminal, kept

[4] = biological target: T4, GST-tagged 2AAB full length (Serine/threonine-protein phosphatase 2 A 65 kDa regulatory subunit A beta … (UniProt P30154 1-601))
T4 construct: Serine/threonine-protein phosphatase 2A 65 kDa regulatory subunit A beta isoform, full length, 1-601 aa; Expressed from pGEX-6p-1 as N-terminal GST fusion; detected by an antibody against the GST tag; source: E. coli BL21, purified (glutathione sepharose); not shown: GST, N-terminal, kept

[5] = biological target: T5, GST-tagged β-catenin 12-ARM repeats, 135–664 aa (UniProt P35222 135-664)
T5 construct: β-catenin, 12-ARM repeats, residues 135-664; Expressed from pGEX-6p-1 as N-terminal GST fusion; detected by an antibody against the GST tag; also called β-catenin ARM repeats; source: E. coli BL21, purified (glutathione sepharose); not shown: GST, N-terminal, kept
T5 sequence (looked up): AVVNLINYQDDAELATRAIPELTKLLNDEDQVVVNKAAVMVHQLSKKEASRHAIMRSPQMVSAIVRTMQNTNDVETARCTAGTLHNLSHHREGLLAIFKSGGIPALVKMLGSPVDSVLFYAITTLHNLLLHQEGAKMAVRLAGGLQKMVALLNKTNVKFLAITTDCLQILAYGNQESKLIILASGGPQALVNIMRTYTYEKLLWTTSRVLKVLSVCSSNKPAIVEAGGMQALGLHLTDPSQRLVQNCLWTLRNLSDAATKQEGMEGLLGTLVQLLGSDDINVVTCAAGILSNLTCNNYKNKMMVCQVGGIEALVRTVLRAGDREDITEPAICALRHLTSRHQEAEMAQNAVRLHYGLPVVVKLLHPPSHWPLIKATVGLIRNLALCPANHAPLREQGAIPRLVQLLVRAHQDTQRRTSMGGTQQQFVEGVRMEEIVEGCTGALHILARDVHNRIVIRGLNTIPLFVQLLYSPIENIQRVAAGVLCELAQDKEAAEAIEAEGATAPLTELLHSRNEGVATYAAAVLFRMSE

T3 sequence (Q14974 396-459): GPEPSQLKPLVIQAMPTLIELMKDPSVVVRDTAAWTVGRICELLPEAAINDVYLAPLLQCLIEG
T4 sequence (P30154 whole entry, the tested form may be a part, canonical isoform): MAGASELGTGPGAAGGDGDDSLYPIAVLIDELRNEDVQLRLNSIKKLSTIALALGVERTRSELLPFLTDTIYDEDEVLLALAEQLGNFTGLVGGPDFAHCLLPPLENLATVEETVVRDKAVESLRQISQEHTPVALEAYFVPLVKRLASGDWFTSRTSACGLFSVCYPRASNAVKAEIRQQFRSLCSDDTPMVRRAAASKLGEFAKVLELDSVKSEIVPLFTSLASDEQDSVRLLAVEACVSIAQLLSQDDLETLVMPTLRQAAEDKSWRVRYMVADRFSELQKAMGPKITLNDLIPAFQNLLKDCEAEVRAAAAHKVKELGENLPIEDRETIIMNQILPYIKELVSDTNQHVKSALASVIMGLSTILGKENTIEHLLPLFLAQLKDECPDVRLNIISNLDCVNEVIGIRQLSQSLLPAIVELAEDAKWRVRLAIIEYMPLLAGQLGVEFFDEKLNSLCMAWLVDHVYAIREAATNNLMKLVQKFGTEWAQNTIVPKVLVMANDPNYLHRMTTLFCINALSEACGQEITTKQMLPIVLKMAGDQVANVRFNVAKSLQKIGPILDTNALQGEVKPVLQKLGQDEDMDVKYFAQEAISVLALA
T2 sequence (P78527 276-331): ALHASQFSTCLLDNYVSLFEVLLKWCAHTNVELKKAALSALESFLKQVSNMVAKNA
T1 sequence (Q92616 1402-1715): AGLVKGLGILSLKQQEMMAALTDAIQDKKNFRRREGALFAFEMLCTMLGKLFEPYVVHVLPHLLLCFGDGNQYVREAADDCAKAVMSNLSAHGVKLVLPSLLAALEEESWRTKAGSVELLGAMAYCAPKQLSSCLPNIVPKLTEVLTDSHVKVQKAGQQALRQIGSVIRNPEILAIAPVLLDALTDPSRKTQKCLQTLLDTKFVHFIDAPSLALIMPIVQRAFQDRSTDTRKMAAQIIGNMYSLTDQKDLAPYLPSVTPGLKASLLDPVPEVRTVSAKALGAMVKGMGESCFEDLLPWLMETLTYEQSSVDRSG

binding result [1]: binds
binding result [2]: binds
binding result [3]: binds
binding result [4]: binds
binding result [5]: binds
B1: H3 1–20 peptide myristoylated on lysine 9, …(myr)…-K(Biotin) (peptide)
peptide: not shown
modifications: myristoyl-lysine at 9; biotin on the added C-terminal lysine
notes: histone H3, residues 1-20; added C-terminal lysine that carries the biotin, K(Biotin); Peptides with K(Biotin) were synthesized on ChemMatrix Rink amide resin, so the C-terminus is probably an amide (surmised); also called H3K9myr; source: synthetic peptide; not shown: biotin (on an added C-terminal lysine), C-terminal, kept
